The list shows a part of the results.
Tested on: T1, Caupolican (Caup) homeodomain DNA-binding domain
T1 sequence: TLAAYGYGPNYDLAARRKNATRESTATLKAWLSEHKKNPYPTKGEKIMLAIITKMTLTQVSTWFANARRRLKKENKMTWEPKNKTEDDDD
Assay: PBM E-score (8-mer, recovered from the published 9-mer minima) (E-score (dimensionless, -0.5 to 0.5)); Drosophila protein; higher = stronger relative binding preference, active = 0.31 or more
Method in brief: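 Caup's homeodomain DNA-binding domain (residues 214-303) was produced by in vitro transcription and translation and applied at 100 nM to custom-designed protein binding microarrays. Each value is an enrichment score giving relative binding preference for a short DNA word; higher means stronger. Published 9-mer scores were the minimum of their two constituent 8-mer scores, and the 8-mer values were recovered from those minima. A cutoff of 0.31 marks candidate binding sequences.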

Row | Sequence | PBM E-score
1 | AGCGGTTC | inactive: -0.0923
2 | CCAGTGTC | inactive: 0.122
3 | GGACTGAA | ≥ 0.0183
4 | AATCCGAT | inactive: 0.101
5 | CAGAAACA | inactive: 0.165
6 | GCAAACTA | inactive: 0.139
7 | ATTCATCG | inactive: 0.0244
8 | ACACTGAG | inactive: 0.0672
9 | CGTGCCGC | inactive: -0.179
10 | ACTTGAAG | inactive: 0.044
11 | CAAAACGG | inactive: 0.016
12 | AAACCGAC | inactive: 0.084
13 | GCTCTTCC | inactive: -0.141
14 | CCTAACCG | inactive: -0.141
15 | ATCTCTGA | inactive: 0.0832
16 | ACACATAC | inactive: 0.295
17 | AAAGTGGT | inactive: 0.0391
18 | ATCAAGCC | inactive: -0.00515
19 | CTAAATGA | inactive: 0.0613
20 | CCGCGGGC | inactive: -0.221
21 | AAGCCCTC | inactive: -0.186
22 | TCATAAAA | inactive: 0.128
23 | CCACTTGA | inactive: -0.0675
24 | ACAGTCTA | ≥ 0.0542

Row | Sequence | PBM E-score
25 | TAGCACTA | inactive: 0.026
26 | GGTCAGTA | inactive: -0.0607
27 | GGATGCCA | inactive: -0.0361
28 | GGGAATAC | inactive: 0.118
29 | GCTATTAC | inactive: 0.122
30 | CGAGGGGA | inactive: -0.12
31 | CGTTAATC | inactive: 0.0673
32 | ATCCCCCG | ≥ -0.172
33 | CTAAACAA | inactive: 0.187
34 | ACCAACCT | inactive: -0.00644
35 | GGTGATAA | inactive: 0.0536
36 | CGGGGCTC | inactive: -0.266
37 | AGGTAAAT | inactive: 0.153
38 | AAATCCGG | inactive: -0.169
39 | GGGAAACC | inactive: -0.0751
40 | GAACCGAA | inactive: 0.0299
41 | GTGAAAAC | inactive: -0.00518
42 | AGCGAAGC | inactive: -0.124
43 | CAAAAGCA | inactive: 0.05
44 | AAGTTGAC | inactive: 0.0758
45 | ACAGCGCT | inactive: 0.0486
46 | GGAGCAAC | inactive: -0.0648
47 | CATCACCC | inactive: -0.149
48 | AACTTACG | inactive: 0.104

Row | Sequence | PBM E-score
49 | CAGGAAAC | inactive: 0.0685
50 | CCGAGACC | inactive: -0.145
51 | GTACTATA | inactive: 0.232
52 | TTAATCAA | inactive: 0.198
53 | AATACCGG | inactive: 0.0508
54 | ATCGTATC | inactive: 0.0713
55 | GCAAGAAA | inactive: -0.093
56 | AACTGCCG | inactive: -0.127
57 | CCGAGACG | inactive: -0.0572
58 | CGCAAGAA | inactive: -0.136
59 | CGCCGCTA | inactive: -0.196
60 | AGTGCCCA | ≥ -0.0344
61 | GATGGCAA | inactive: 0.0182
62 | GGACGGAC | inactive: -0.0992
63 | AGTCCTTG | inactive: 0.0158
64 | GCAGGGCC | inactive: -0.272
65 | AACGGTCA | inactive: -0.00424
66 | CATGGGAC | inactive: 0.151
67 | GCACAGTA | inactive: -0.0165
68 | CGACTTTC | inactive: -0.153
69 | CTCACTAA | inactive: 0.0552
70 | CCGTCAGC | inactive: -0.212
71 | ACCATCAA | inactive: 0.0235
72 | CTAATATC | inactive: 0.0723

— the supplement of paper PMC3724861
